Source: US20160184404A1, “NOVEL HEMOGLOBIN-DERIVED PEPTIDE BASED PHARMACEUTICAL COMPOSITIONS” (CLINIQUE LA PRAIRIE, priority 2014, published 2016)

What was measured:
Human MNC [1] = test: Stimulation of human MNC with MPLA in the presence of Hb-derived peptides, cytokine ELISA of supernatant; format: cell-based; details: MPLA 3 μg/ml; for effect of alanine replacement on the synergistic activity of Hbg-35 with MPLA, IL-6 release: alanine-scan, peptide 3 μM, FIG. 18; for synergistic effect with MPLA in the absence and presence of human serum, IL-6 release / synergistic activity with MPLA, IL-6 release: peptide 1, 3, 10 μM; for synergistic effect with MPLA in the absence and presence of human serum, IL-6 release: with or without 10% human serum, FIG. 8, 14; for synergistic activity with MPLA, IL-6 release: 20 h, FIG. 7, 10, 12, 15, 16, 29
Experimental: Human mononuclear cells (MNC) were isolated from peripheral blood of healthy donors by density-gradient centrifugation on Ficoll gradient media (PAA Laboratories GmbH, Pasching, Austria). The cells were suspended and cultured in RPMI-1640 medium, containing […]. 50 μl of a peptide solution were incubated with 50 μl of a MPLA solution in a U-form 96 well micro cell culture plate #3799 (Corning Costar GmbH, Bodenheim, Germany) for 15 min at 37° C. After this incubation period 20 μl of heat-inactivated (56° C./30 min) human serum or RPMI-1640 medium were added. Finally, 80 μl of a MNC cell suspension was added to give a final concentration of 1 to 2×10^6 cells for culture in the absence of human serum or 1×10^6 cells for culture in the presence of serum. After a culture time of 20 h the cells were spun down and the culture supernatants were harvested. The cytokine concentrations in the supernatants were determined by matched antibody pairs for ELISA obtained from Invitrogen GmbH, Darmstadt (Germany). Mostly, each value represents the mean±SD of duplicate culture. In FIG. 3 the mean of three independent experiments is given, each of these three independent experiments having duplicate cultures.

Human MNC [2] = test: Stimulation of human MNC with synthetic lipopeptides (Pam3C-SK4, FSL-1) in the presence of Hbg-35, IL-6 ELISA; format: cell-based; details: Pam3C-SK4 10 nM or FSL-1 1 nM; peptide 1, 3, 10 μM; FIG. 30
human memory T-cell = test: Stimulation of memory T-cells in human MNC with recall antigens PPD and TT, 3H-thymidine incorporation; format: cell-based; details: MPLA 10 ng/ml; peptide 1 or 3 μM; FIG. 21
Experimental: For stimulation of T-lymphocytes, human MNC were cultured in RPMI-1640 medium, containing […], and 10% of inactivated human serum at a concentration of 0.5 to 1.0×10^6 cells per ml in flat-bottom 96-well tissue culture plates. To investigate the adjuvant effect of MPLA and Hbg-peptides, the recall antigens tetanus toxoid (TT) and purified protein derivatives of M. tuberculosis (PPD) (both from Statens Serum Institute, Copenhagen, Danmark) were used. After 6 days of culture, cells were labeled with ^3H-Thymidine (3HTdR (2 Ci/mmol, 0.2 μCi/culture)) and after an additional day of culture the cells were harvested on glass-filter mats for measurement of incorporated radioactivity into the DNA. The results are expressed as mean±SD of duplicate cultures.
There is a close interaction between the innate immune system, as presented by e.g. monocytes and dendritic cells, and the adaptive immune system, as presented by T-lymphocytes and B-lymphocytes. Monocytes and dendritic cells present antigenic fragments to the cells of the adaptive immune system to initiate a specific immune reaction. In addition, they support the strength and polarization of the immune response by means of the release of cytokines. […]

[3] = Fourier-transform infrared spectroscopy, amide I band, secondary structure; format: physicochemical
Purified human monocytes = test: Stimulation of purified human monocytes with MPLA in the presence of Hbγ1-peptides, IL-6 ELISA; format: cell-based; details: MPLA 1 μg/ml; peptide 1, 3, 10 μM; FIG. 9
Experimental: FIG. 9: Synergistic effect of Hbg-23 and Hbg-32 peptide on stimulation of human monocytes with MPLA. Purified human monocytes (>95%) were stimulated with MPLA (1 μg/ml) in the presence or absence of the Hbγ1-peptides Hbg-23 and Hbg-32-107 (1, 3 and 10 μM). Control cultures were kept without MPLA. After a culture period of 20 h, the IL-6 concentration in the supernatant was determined by ELISA. Each value represents the mean±SD of duplicate cultures.
Human mononuclear cells (MNC) were isolated from peripheral blood of healthy donors by density-gradient centrifugation on Ficoll gradient media (PAA Laboratories GmbH, Pasching, Austria). The cells were suspended and cultured in RPMI-1640 medium, containing […]. 50 μl of a peptide solution were incubated with 50 μl of a MPLA solution in a U-form 96 well micro cell culture plate #3799 (Corning Costar GmbH, Bodenheim, Germany) for 15 min at 37° C. After this incubation period 20 μl of heat-inactivated (56° C./30 min) human serum or RPMI-1640 medium were added. […] The cytokine concentrations in the supernatants were determined by matched antibody pairs for ELISA obtained from Invitrogen GmbH, Darmstadt (Germany). […]

Human MNC [4] = test: Stimulation of human MNC with LPS in the presence of Hbg-32, IL-6 ELISA; format: cell-based; details: LPS 1 ng/ml; peptide 1, 3, 10 μM; FIG. 12
[5] = Small angle X-ray scattering (SAXS) of MPLA aggregates; format: physicochemical; details: MPLA alone or in the presence of peptide; 40° C.; FIG. 22
Experimental: SAXS measurements were performed at the European Molecular Biology Laboratory (EMBL) outstation at the Hamburg synchrotron radiation facility HASYLAB using the camera X33. Diffraction patterns in the range of the scattering vector 0.1<s<1.0 nm^−1 (s=2 sin θ/λ, 2θ scattering angle and A the wavelength=0.15 nm) were recorded at 40° C. with exposure times of 1 min using an image plate detector with online readout (MAR345, MarResearch, Norderstedt/Germany). The lipid concentration was in all cases 20 mM. The s-axis was calibrated with Ag-behenate, which has a periodicity of […]. The diffraction patterns were evaluated as described previously (Howe et al. (2008a)), assigning the spacing ratios of the main scattering maxima to defined three-dimensional structures. The lamellar and cubic structures are the most relevant here. The following features characterize the supramolecular structure: • (1) lamellar: The reflections are grouped in equidistant ratios, i.e., 1, ½, ⅓, ¼, etc. of the • lamellar repeat distance dλ; • (2) cubic: The different space groups of these non-lamellar three-dimensional structures differ in the ratio of their spacings. The relation between reciprocal spacing shkl=1/dhkl and lattice constant a is
shkl=[(h^2+k^2+l^2)/a]^1/2 • (hkl=Miller indices of the corresponding set of plane).

[6] = Förster resonance energy transfer spectroscopy (FRET), intercalation into MPLA aggregates; format: physicochemical
[7] = Laser light scattering of MPLA suspensions; format: physicochemical; details: MPLA 0.1 mM + Hbg-32 0.1 mM; FIG. 24
[8] = Freeze-fracture transmission electron microscopy of MPLA; format: physicochemical; details: MPLA 1 mM alone or with equimolar peptide; FIG. 25
Experimental: A small amount of the samples was sandwiched between two copper profiles and frozen by plunging the sandwiches immediately into liquefied ethane-propane-mixture cooled in liquid nitrogen. Fracturing and replication were performed at −150° C. in a BAF 400T freeze-fracture device (BAL-TEC, Balzers, Liechtenstein) equipped with electron guns and a film sheet thickness monitor. For replication Pt(C) was evaporated under an angle of 35° and (C) under 90°. The replicas were placed on copper grids and cleaned with a chloroform-methanol mixture.

[9] = Atomic force microscopy of MPLA dispersions; format: physicochemical
Experimental: Atomic force microscopy (AFM) allows a direct look onto the morphology of lipid aggregates on a molecular scale under almost physiological conditions. This allows obtaining depth profiles of MPLA dispersions down to a resolution limit of lower than 1 nm. For the analysis, MPLA dispersions were prepared at a concentration of 25 μM in physiological saline in the absence and presence of an equimolar content of Hbg-32.

## Hbg-54: Hbg-35 alanine-scan peptide, replacement of Glu125/Ala (TVLAIHFGKEFTPAVQASWQKMVTAVASAL; Hbg-54)
Human MNC [1]
  effect of alanine replacement on the synergistic activity of Hbg-35 with MPLA, IL-6 release: abolished the synergistic effects

## Hbg-55: Hbg-35 alanine-scan peptide, replacement of Val126/Ala (TVLAIHFGKEFTPEAQASWQKMVTAVASAL; Hbg-55)
Human MNC [1]
  effect of alanine replacement on the synergistic activity of Hbg-35 with MPLA, IL-6 release: abolished the synergistic effects

## TVLAIHFGKEFTPEVQASWQKMVTAVASAL (Hbg-35)
Human MNC [1]
  synergistic effect with MPLA in the absence and presence of human serum, IL-6 release: resembled the synergism mediated by Hbg-32
Human MNC [2]
  synergistic activity with synthetic lipopeptides, IL-6 release: synergistic activity
Human memory T-cell
  effect on the adjuvant effect of MPLA on PPD and TT induced T-lymphocyte proliferation: enhanced
[3]; Hbγ35:MPLA 1:1 molar
  influence of MPLA addition on the peptide's secondary structure (FTIR): does not influence the peptide's secondary structure
[3]; peptide alone and 1:1 molar with MPLA, FIG. 28
  secondary structure of the peptide (FTIR): main α-helical structure and a minor β-sheet component
[3]; peptide alone and with MPLA
  main absorbance maximum, amide I band: around 1659 cm^−1
  second peak, amide I band: around 1628 cm^−1

## TVLAIHFGKEFTPEVQASWQKMVTAVASAQ (Hbg-32)
Human MNC [1]; 3 and 10 μM, FIG. 13
  synergistic activity with MPLA compared with native Hbγ1 chain, IL-8 release: higher synergistic activity
Human MNC [1]
  synergistic activity with MPLA, IL-6 release: synergically enhanced
  synergistic effect with MPLA in the absence and presence of human serum, IL-6 release: synergistic effects in the absence as well as in the presence of human serum
Human MNC [1]; listed as Hbg-32-107
  synergistic activity with MPLA, IL-6 release: increased synergistic effects
Human MNC [1]; listed as Hbg-32-108
  synergistic activity with MPLA, IL-6 release: synergistic effects comparable to Hbg-32-107
Human MNC [1]; listed as Hbg-32-KB
  synergistic activity with MPLA, IL-6 release: synergistic effects comparable to Hbg-32-107
Human MNC [1]; peptide 3, 10 μM, FIG. 11
  synergistic effect with MPLA on IL-1β, IL-6, IL-8 and TNFα release: also found with respect to IL-1β and TNFα release
Purified human monocytes
  synergism with MPLA in stimulating purified human monocytes, IL-6 release: synergize with MPLA
Human MNC [4]
  synergistic enhancement of LPS immunostimulatory activity, IL-6 release: synergically enhanced
[5]
  aggregate structure of MPLA (SAXS): converted into one with cubic symmetry
[6]; [MPLA]:[Hbg-32] molar ratio 10:1
  intercalation of the peptide into MPLA aggregates (FRET): considerable intercalation
[6]; equimolar concentration
  intercalation of the peptide into MPLA aggregates (FRET): much more pronounced
[7]
  effect of peptide on MPLA aggregation (laser light scattering): clear disaggregating effect
[8]
  morphology of MPLA aggregates (freeze-fracture electron microscopy): these aggregates are dispersed and become more spherical
[9]; MPLA 25 μM + equimolar peptide
  part of the plane showing bilayered structures (AFM): More than 90%
  thickness of bilayered structures (AFM): approximately 5 nm
[9]; MPLA 25 μM + equimolar peptide, FIG. 26B
  maximum heights of the MPLA assembly (AFM): up to 10 nm
[9]; MPLA 25 μM on mica, alone or with equimolar peptide, after one hour
  morphology of MPLA aggregates (AFM): tightly packed layers disaggregate dramatically

## TVLAIHFGKEFTPEVQASWQKMVTGVASAL (Hbg2-70)
Human MNC [1]
  synergistic activity with MPLA, IL-6 release: synergistically active in a similar range as Hbg-35-146m
